Test results as given in patent publication US20250332170A1, “VANDETANIB REDUCES INFLAMMATORY CYTOKINES AND AMELIORATES COVID-19” (Collaborations Pharmaceuticals, Inc., priority 2021, published 2025).

Experiments:
Caco-2 cells = experiment: Cytotoxicity in Caco-2 cells (CC50); assay type: cell-based
[1] = test system: SARS-CoV-2 (strain USA_WA1/2020); experiment: microbe, parasite or virus in culture; assay type: cell-based

Structure (SMILES)	Toxicity in Caco-2 cells (Caco-2 cells)	EC90 ([1]; Severe acute respiratory syndrome coronavirus 2, Caco-2 cells, strain USA_WA1/2020, read-out: EC90, SARS-CoV-2 in Caco-2)	EC90 ([1]; Severe acute respiratory syndrome coronavirus 2, Caco-2, read-out: EC90, SARS-CoV-2 in Caco-2)
CN1CCN(c2ccc(C(=O)Nc3n[nH]c4ccc(Cc5cc(F)cc(F)c5)cc34)c(NC3CCOCC3)c2)CC1 [Entrectinib]	toxic at the concentrations tested	> 3.6 µM	–
COc1cc2c(Nc3ccc(Br)cc3F)ncnc2cc1OCC1CCN(C)CC1 [Vandetanib]	–	–	2 µM

Where two headings read alike, the source gives them in different places.
